Measured values taken from paper PMC4336329 (PLoS ONE, 2015).
Among all 310,000 compounds or so, about 2,200 (0.71%) showed an effect of 50% or more. The effect is printed as a negative number. The list shows a part of the results.

target: human ether-à-go-go-related gene (hERG) potassium channel (human, UniProt Q12809); assay: primary screen, population patch clamp on CHO cells stably expressing hERG
Sequence (Q12809 whole entry, looked up): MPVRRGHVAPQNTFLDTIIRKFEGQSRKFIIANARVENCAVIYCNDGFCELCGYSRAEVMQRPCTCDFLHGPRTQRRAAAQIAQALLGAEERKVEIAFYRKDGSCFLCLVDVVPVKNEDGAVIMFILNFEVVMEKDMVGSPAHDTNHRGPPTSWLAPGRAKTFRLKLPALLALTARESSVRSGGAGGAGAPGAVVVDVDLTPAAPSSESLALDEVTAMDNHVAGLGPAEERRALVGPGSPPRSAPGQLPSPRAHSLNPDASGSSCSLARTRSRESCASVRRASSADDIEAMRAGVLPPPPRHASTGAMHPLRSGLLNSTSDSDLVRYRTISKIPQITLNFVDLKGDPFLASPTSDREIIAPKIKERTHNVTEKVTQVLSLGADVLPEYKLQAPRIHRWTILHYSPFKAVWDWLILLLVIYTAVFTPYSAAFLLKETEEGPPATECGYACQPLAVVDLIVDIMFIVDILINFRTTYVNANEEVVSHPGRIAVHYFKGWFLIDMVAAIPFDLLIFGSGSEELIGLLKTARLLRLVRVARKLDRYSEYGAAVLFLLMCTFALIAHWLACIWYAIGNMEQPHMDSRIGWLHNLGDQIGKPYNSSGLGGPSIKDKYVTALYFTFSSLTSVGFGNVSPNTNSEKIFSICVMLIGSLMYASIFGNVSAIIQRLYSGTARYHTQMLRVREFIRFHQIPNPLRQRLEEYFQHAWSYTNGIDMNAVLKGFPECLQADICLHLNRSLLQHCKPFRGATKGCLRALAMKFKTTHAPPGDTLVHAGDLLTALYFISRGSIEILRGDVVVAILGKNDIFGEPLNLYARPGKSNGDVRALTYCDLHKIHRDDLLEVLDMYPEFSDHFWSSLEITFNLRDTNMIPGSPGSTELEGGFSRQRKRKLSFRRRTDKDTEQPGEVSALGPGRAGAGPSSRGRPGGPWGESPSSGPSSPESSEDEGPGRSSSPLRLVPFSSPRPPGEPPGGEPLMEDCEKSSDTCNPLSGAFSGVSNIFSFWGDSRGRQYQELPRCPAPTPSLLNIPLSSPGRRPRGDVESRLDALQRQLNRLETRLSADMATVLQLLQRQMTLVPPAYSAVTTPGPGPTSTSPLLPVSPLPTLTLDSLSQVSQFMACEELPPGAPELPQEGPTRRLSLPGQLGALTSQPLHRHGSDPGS

Row | Structure (SMILES) | hERG current change (%, negative = inhibition) at 1uM [%]
1 | C=CCN1C(=O)NC2(O)C(=O)c3ccccc3C12O (stereo not shown) | 7.82
2 | Cc1nnc(Sc2c(-c3ccccc3)c3ccc(Cl)cc3[nH]c2=O)s1 | 6.04
3 | COc1ccc2nc(C)cc(SCC(=O)Nc3c(C)cccc3C)c2c1 | 11.4
4 | C#CCOc1ccccc1CNc1ccccc1 | 12.5
5 | COc1ccc(-c2csc(NC(=O)CCCc3cccs3)n2)cc1 | 8.28
6 | Cc1ccc(C)c(N2CCN(C(=O)c3cc4sccc4n3C)CC2)c1 | 8.32
7 | Cc1ccc(-n2c(-c3ccco3)nc3nc4ccccc4nc32)cc1F | 1.67
8 | O=c1[nH]c(CSc2ncnc3sccc23)nc2ccccc12 | 11
9 | COc1cn(-c2ccccc2)nc1C(=O)NCc1ccccc1 | 9.39
10 | Fc1ccc(C(c2nnnn2Cc2cccs2)N2CCN(c3ccccc3)CC2)cc1 (stereo not shown) | 3.79
11 | Cc1ccc2c(c1)N(CC(=O)N1CCCCC1)C(=O)CO2 | 3.2
12 | CC(C)c1cccc(C(C)C)c1NC(=O)COc1nncc2ccccc12 | 12.6
13 | Cc1cc(=O)[nH]c(SCC(=O)OCc2ccccc2)c1C#N | 10.9
14 | CCC(C)[C@H]1COCCS(=O)(=O)N1Cc1ccc(C)cc1 (stereo partly shown) | -0.569
15 | Cc1ccc(CNC(=O)c2cc(-c3ccccc3)nn2CC2CC(c3cccc([N+](=O)[O-])c3)=NO2)cc1 (stereo not shown) | 24.3
16 | COC(=O)c1c[nH]n2c(=O)c(C(C)C)c(C)nc12 | 7.4
17 | CCN1CCN(Cc2c3ccccc3cc3ccccc23)CC1 | 13.1
18 | Cc1cccc(-n2ccc(=O)c(C(=O)Nc3ccc(S(=O)(=O)N4CCOCC4)cc3)n2)c1 | 10.2
19 | COc1cc(/C=N/N=C2/NC(=O)C(CC(=O)O)S2)ccc1OCc1cccc(Cl)c1 (stereo not shown) | 11.6
20 | O=C(Cn1nc(-c2ccccc2)ccc1=O)Nc1ccc(-n2cnnn2)cc1 | 9.23
21 | CC(=O)c1ccc(S(=O)(=O)N2CCC3(CC2)CC(=O)c2ccccc2O3)cc1 | -11
22 | COCc1[nH][nH]c(=O)c1C=Nc1ccc(OC(F)(F)F)cc1 | -16.1

Row | Structure (SMILES) | hERG current change (%, negative = inhibition) at 1uM [%]
23 | CCOC(=O)c1ccccc1NC(=O)c1ccc2c(SCC(=O)O)c3c(nc2c1)CCCC3 | 16.1
24 | COc1ccc(CCC(=O)N2CC(C)OC(C)C2)cc1 (stereo not shown) | 0.126
25 | CC(C)COc1ncnc2c1sc1nc3c(cc12)COC(C)(C)C3 | 6.63
26 | COC(=O)c1ccccc1NC(=O)Cn1cnc2c(cnn2-c2ccc(C)c(C)c2)c1=O | 14.7
27 | COc1ccc(CN(C)C(=O)c2ccc(NS(=O)(=O)c3ccc(F)cc3)cc2)c(OC)c1OC | -16.5
28 | COc1ccc(N2CCN(C(=O)Cn3cnc4c(cnn4-c4ccc(C)cc4)c3=O)CC2)cc1 | 9.67
29 | CC1CCc2c(sc3ncn(CCO)c(=O)c23)C1 (stereo not shown) | 14.2
30 | O=C(CSc1nnc(-c2cccnc2)s1)Nc1ccc(C(=O)O)cc1 | 13.5
31 | CCOC(=O)c1[nH]c2ccccc2c1N=CN(C)C | -2.42
32 | CCOc1ccc(N2C(=O)CC(Cc3ccc(Br)cc3)C2=O)cc1 (stereo not shown) | 12.6
33 | O=C(COC(=O)c1cc(Cl)ccc1[N+](=O)[O-])Nc1cccc2ccccc12 | 3.5
34 | COc1ccc(-c2csc(C)n2)cc1Br | 9.31
35 | CC1=C(C(N)=O)C(c2ccccc2F)NC(=O)N1 (stereo not shown) | 16
36 | COc1ccc(C2CC(c3ccc(OC)c(OC)c3)=NN2C(=O)c2ccccc2)cc1 (stereo not shown) | 12.8
37 | COc1ccc(C(CNC(=O)c2cccc(S(=O)(=O)Nc3ccc(C)cc3)c2)N2CCCCC2)cc1 (stereo not shown) | 12
38 | COc1ccc(NC(=O)c2cc(C)cc(C)c2)cc1[N+](=O)[O-] | 1.97
39 | COc1nc(C)ccc1-c1noc(-c2cccs2)n1 | 11.1
40 | CCOc1ccc(Nc2ccc([N+](=O)[O-])c3nonc23)cc1 | -3.63
41 | Cc1ccc(NC(=O)CSc2nsc(SCC(=O)Nc3ccc(C)cc3C)c2C#N)c(C)c1 | 15.9
42 | O=C(NNS(=O)(=O)c1ccc(Br)cc1)C1CCCCC1 | 13.1
43 | COc1ccc(NC(=O)CCc2nc3ccccc3s2)c(OC)c1 | 9.27
44 | O=C(NNC(=O)c1cc2ccccc2oc1=O)c1ccccc1[N+](=O)[O-] | 16

Row | Structure (SMILES) | hERG current change (%, negative = inhibition) at 1uM [%]
45 | Cc1ccc(C)c(S(=O)(=O)N2CCN(C(=O)Cc3c(F)cccc3Cl)CC2)c1 | 7.09
46 | O=C(/C=C/c1ccc([N+](=O)[O-])cc1)c1ccco1 | 5.32
47 | CCOC(=O)C(C)Oc1ccccc1C1NC(=O)NC(C)=C1C(=O)Nc1ccc(C)c(C)c1 (stereo not shown) | -5.36
48 | O=C(CC(=O)Nc1cc(Cl)ccc1Cl)Nc1cc(Cl)ccc1Cl | 16.5
49 | Cc1cc(F)ccc1NCc1cc2c(cc1[N+](=O)[O-])OCO2.O=C(O)C(=O)O | 10.5
50 | Cc1ccc(NC(=O)COc2ccccc2C(N)=O)cc1S(=O)(=O)N1CCCCCC1 | -0.137
51 | O=C1C2C3C=CC(CC3)C2C(=O)N1c1ccccc1[N+](=O)[O-] (stereo not shown) | 14.9
52 | CC1CC(C)CN(C(=O)c2ccc3c(c2NCCO)C(=O)c2ccccc2C3=O)C1 (stereo not shown) | 4
53 | Cc1ccc(-c2nnn(CC(=O)O)n2)cc1 | -0.39
54 | COC(=O)c1ccc(Cl)c(NC(=O)CN(c2ccccc2)S(=O)(=O)c2ccc(OC)cc2)c1 | -0.947
55 | Cc1ccc2cc(/C=N/NC(=O)[C@H]3C[C@@H]3c3ccccc3)c(Cl)nc2c1 | 10.9
56 | CCOC(=O)c1c(NC(=O)C2C3C=CC(C3)C2C(=O)O)sc2c1CC(C)(C)OC2 (stereo not shown) | 2.99
57 | CCCCc1ccc(NC(=O)C2CCCC2)cc1 | 15.3
58 | CNc1nc(N)c(C(=O)C23CC4CC(CC(C4)C2)C3)s1 | 9.89
59 | Cc1ccc(-n2nc(C)cc2NC(=O)c2ccc(C)s2)cc1 | 15.2
60 | CCOc1ccc(C(=O)CCCC(=O)c2ccc(OCC)cc2)cc1 | 8.99
61 | CCCn1cnc2scc(-c3ccc(C)cc3)c2c1=O | 11
62 | Cc1ccc(NC(=O)C(C)OC(=O)COc2cccc(C(F)(F)F)c2)cc1 (stereo not shown) | 16.7
63 | COc1cc(NC(=O)c2n[nH]c(=O)c3ccccc23)cc(OC)c1 | 10.5
64 | CCC(=O)C(CCN1CCOCC1)(c1ccccc1)c1ccccc1 | 11.6
65 | Cc1ccc(N2CN=C3SCC(=O)N3C2)cc1C | 3.3
66 | Cc1ccc2nc(-c3ccccc3N)[nH]c2c1 | 9.7

Row | Structure (SMILES) | hERG current change (%, negative = inhibition) at 1uM [%]
67 | COc1ccc(-c2cc(C(F)(F)F)n3nc(C(=O)N4CCN(C(=O)c5ccco5)CC4)cc3n2)cc1 | 3
68 | Cc1ccc(CSc2ccc3nnc(-c4cccnc4)n3n2)cc1 | -70.6
69 | O=C(N/N=C/c1ccccc1C(=O)O)c1ccccc1Br | 4.13
70 | Cc1ccc(S(=O)(=O)N2CCN(C(=O)CN3CCCCC3)C2C(C)C)cc1 (stereo not shown) | -12.7
71 | COc1cc(CC(=O)Nc2ccc3nc(SC)sc3c2)cc(OC)c1OC | 10.6
72 | O=C1CC(c2ccc(S(=O)(=O)NCc3ccccc3)cc2)CN1 (stereo not shown) | -2.32
73 | Nn1c(Cc2cccc3ccccc23)nnc1SCc1ccc(Cl)c(Cl)c1 | 15.7
74 | CC(C)C[C@H](NC(=O)OC(C)(C)C)C(=O)N[C@@H](CO)[C@H](O)[C@@H]1C[C@@H]1C(=O)N1CCCC1 | -7.56
75 | Cc1nccn1-c1ccc(C(F)(F)F)cc1NC=O | 8.01
76 | CCN(C(=O)CSc1nncn1-c1ccccc1)c1c(N)n(Cc2ccccc2)c(=O)[nH]c1=O | 10.7
77 | Cc1ccc(CN2C(=O)C3CCCN3c3ccc(C#N)cc32)cc1 (stereo not shown) | 8.31
78 | CSCCC(NC(=O)c1ccccc1)C(=O)N/N=C(\C)c1ccccc1 (stereo not shown) | 10.5
79 | O=C(c1ccc(F)cc1)N1CCC(O)(c2cccnc2)CC1 | 12.8
80 | CC(=O)Nc1ccc2c(c1)N(S(=O)(=O)c1cccs1)CCC2 | 10.7
81 | CCCCN1C(=O)C2(NNc3ccccc3O2)c2ccccc21 (stereo not shown) | -15.7
82 | C=CCn1c(SCC(=O)NC(=O)NC2CCCC2)nnc1C1CCCCC1 | 8.76
83 | S=c1[nH]nc(-c2cc(-c3ccco3)[nH]n2)n1-c1ccccc1Cl | 4.15
84 | CSc1ccccc1NC(=O)CSCc1ccc(C)cc1 | 8.04
85 | Cc1ccc2[nH]c(C(=O)N3CCN(c4cccc(Cl)c4)CC3)cc2c1 | 13.2
86 | Cc1ccc2c(CC(=O)Nc3ccc(N4CCN(C)CC4)cc3C)coc2c1 | -33.8
87 | Cc1ccc(CSC2=Nc3ccccc3C3=NC(=O)CN23)cc1 | 5.85
88 | C=C(C)Cc1c(C)c(C#N)c2[nH]c3ccccc3n2c1=O | 17.2
